Reference: PubChem BioAssay AID686979 (National Center for Advancing Translational Sciences (NCATS), 2013)
The whole screen tested about 420,000 compounds, of which about 50,000 (12%) were called active. The inconclusive results got no clear call from the source; some entries with a clear call stand among them for comparison. The call rests on the fitted dose curve; in most records, active means well fitted inhibition curve with a large enough effect; inconclusive means small, poorly fitted or top-dose-only effect; inactive means flat fitted curve, though single readings scatter. Potencies of inconclusive entries are left out as doubtful fits.

experiment: qHTS for Inhibitors of human tyrosyl-DNA phosphodiesterase 1 (TDP1): qHTS in cells in presence of CPT; settings: chicken DT40 Tdp1-/-;hTDP1 cells + 20 nM CPT, ATP luminescence, 48 h; activity change, negative = growth inhibition: at 46.2 µM (top of the series) unless noted; further: nearly all actives have a fitted effect of over 55% in size
How it was run: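 Cell growth measured by CellTiter-Glo luminescence after a minimum 48 h, 37 C compound exposure with 20 nM CPT in Tdp1-knockout DT40 cells stably expressing hTDP1, seeded 400/well; qHTS titration format.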
On the % scale 0 is the no-effect control and ±100 the full control effect; potency means the concentration at half of the fitted maximal effect; tags describe the fitted curve by direction and shape.

Compound	activity change, negative = growth inhibition	Potency
Cc1ccc(N(C(=O)c2ccco2)C(C(=O)NC2CCCC2)c2cccnc2)cc1 (centres undefined)	inactive: -17%	–
Cc1cc(NC(=O)C2CC2)ncc1NC(=O)c1ccccn1	–	inconclusive [inhibitor, full curve, poor fit]
Cc1ccc(Cl)cc1N1CCN(C(=O)Cn2cnc3nc4c(cc3c2=O)CCCC4)CC1	–	inconclusive [inhibitor, single point]
COc1cc(/C=N/NC(=O)CCC(=O)Nc2ccc(Br)cc2)ccc1O	inactive: 4.66%	–
Cc1ccc(C)n1-c1nnc(N2CCCC(C(=O)NCc3ccc(F)cc3)C2)s1 (centres undefined)	–	active: 18.4 µM
COc1ccc(-c2csc(NC(=S)NC(=O)c3cccs3)n2)cc1Br	–	inconclusive [inhibitor, single point]
COc1ccc(CNC(=O)c2ccc(NS(=O)(=O)c3ccc4[nH]c(=O)[nH]c4c3)cc2)cc1OC	inactive: -1.98%	–
CC(C)(C)C(=O)N1CCN(c2ccc(NC(=O)c3ccc([N+](=O)[O-])o3)cc2)CC1	–	active: 2.59 µM
COc1ccc2cc(C(=O)Nc3ccccc3)sc(=O)c2c1OC	inactive: -22.9%	–
O=C(NCCCc1ccccc1)C1CCC(=O)N(Cc2ccc(Cl)cc2)C1 (centres undefined)	–	inconclusive [inhibitor, single point]
COC(=O)[C@@]12C[C@@H](CC(=O)NCc3ccc(C)o3)C(=O)N(Cc3cccc4ccccc34)C1=CCC(C)(C)C2	–	active: 20.6 µM
COc1ccc(C)cc1NC(=O)n1ncc2c(C)cccc21	inactive: -19.9%	–
COc1ccccc1N1CCN(C(=O)CNC(=O)c2cn(-c3ccccc3OC)c(=O)c3ccccc23)CC1	–	inconclusive [inhibitor, full curve, poor fit]
O=C(c1ccc2c(=O)n(-c3ccccc3)c(=O)[nH]c2c1)N1CCN(Cc2cccs2)CC1	–	inconclusive [inhibitor, single point]
O=C(CSCc1c(F)cccc1Cl)NCCSCc1ccco1	inactive: 19.8%	–
CCOC(=O)C1=CCN(S(=O)(=O)c2ccccc2F)C1c1ccc(F)cc1 (centres undefined)	–	inconclusive [inhibitor, single point]
O=C(NCc1cccc(Br)c1)c1cccn1-c1nnc(N2CCCCC2)s1	–	inconclusive [inhibitor, single point]
O=C1CCN(c2ccccc2)N1	–	active: 29.1 µM
O=C(c1cccc(F)c1)N1CCC2(CC1)CN(c1cccc(-c3ccccc3)c1)C2	–	inconclusive [inhibitor, partial curve, poor fit]
Cc1csc(NC(=O)Cc2ccc(Cl)cc2)n1	inactive: -21.8%	–
Cc1ccc(C)c(-c2cc(C(=O)N/N=C/c3cccnc3)c3ccccc3n2)c1	–	inconclusive [inhibitor, full curve]
CC(C)(C)c1nnc(NC(=O)c2cc(-c3ccccc3)nc3ccccc23)s1	inactive: -6.83%	–
COc1ccc(OC)c(NC(=O)c2ccc3c(c2)c(C)c(C)n3Cc2ccc(F)cc2)c1	–	inconclusive [inhibitor, single point]

Compound	activity change, negative = growth inhibition	Potency
Cc1ccc(C(=O)Nc2nc3n(n2)C(c2ccccc2)C=C(c2ccccc2)N3)cc1 (centres undefined)	–	inconclusive [inhibitor, single point]
O=C(O)c1ccc(/C=C2\CCCc3c2nc2ccccc2c3C(=O)O)cc1	inactive: -15.7%	–
O=C(Cn1nnc(-c2cccc(C(F)(F)F)c2)n1)NNS(=O)(=O)c1cccc(C(F)(F)F)c1	–	inconclusive [inhibitor, single point]
CC(O)CN1CCN(C(=O)CN2C(=O)NC(c3ccccc3)(c3ccccc3)C2=O)CC1 (centres undefined)	inactive: -3.53%	–
O=C(Nc1ccccc1N1CCOCC1)c1cc(=O)[nH]c2ccccc12	–	inconclusive [inhibitor, single point]
Cc1ccccc1OCCNc1cc(N2CCCCC2)ccc1[N+](=O)[O-]	–	active: 20.6 µM
Cc1cc(/C=N/n2cnnc2)c(C)n1-c1ccc(OCc2ccc(Cl)cc2Cl)cc1	–	active: 7.31 µM
CC(=O)c1cc2c(cc1NC(=O)c1cc(C)nn1-c1ccccc1)OCO2	–	active: 5.17 µM
Cc1ccc2oc3c(c(=O)c2c1)C(c1cccc(Cl)c1)N(CCCN1CCOCC1)C3=O (centres undefined)	–	inconclusive [inhibitor, single point]
COCc1cc(Sc2ccc(Cl)cc2)nc(-c2ccccc2)n1	–	inconclusive [inhibitor, single point]
CCc1ccc(N(C(=O)c2snc(C(N)=O)c2N)C(C(=O)NCC2CCCO2)c2cccs2)cc1 (centres undefined)	–	inconclusive [inhibitor, single point]
COc1cccc2sc(Nc3nnc(-c4cccs4)o3)nc12	–	active: 3.66 µM
CCCN1CNc2c(c(=O)[nH]c(=S)n2CCc2cccc(Cl)c2Cl)C1	–	inconclusive [inhibitor, single point]
Oc1cccc(C2c3[nH]c4ccccc4c3CCN2Cc2ccc3c(c2)CCO3)c1 (centres undefined)	–	inconclusive [inhibitor, single point]
CCC1c2ccc(C)n2CCN1C(=O)Nc1cc(Cl)ccc1OC (centres undefined)	–	inconclusive [inhibitor, full curve, poor fit]
Cc1nc2cnc(Nc3ccccc3)nc2n(Cc2cccs2)c1=O	–	inconclusive [inhibitor, full curve, poor fit]
Cn1cnc2c(cnn2C)c1=N	inactive: 10.5%	–
Cc1ccc(CNC(=O)Cn2cnc3c(OCc4ccccc4)ncnc32)o1	–	inconclusive [inhibitor, single point]
O=C(Nc1ccc(Cl)cc1Cl)[C@@H]1CC=C[C@@H]2CCN(Cc3ccccc3)C(=O)[C@@H]21	–	active: 10 µM
O=C(Cn1cnc2ccccc2c1=O)Nc1ccccc1N1CCOCC1	inactive: 2.45%	–
Cn1c(CCN2CCCCC2)nc2cc(NS(=O)(=O)c3ccc(Cl)cc3)ccc21	–	inconclusive [inhibitor, single point]
CC(C)C[C@@H](CN1CCC[C@@H]1CN1C(=O)C(=O)NC[C@@H]1Cc1ccccc1)N1C[C@H](Cc2ccc(O)cc2)N(CC2CCCCC2)C(=O)C1=O	–	inconclusive [inhibitor, single point]
CC1CCc2onc(C(=O)N3CCN(c4cccc(C(F)(F)F)c4)CC3)c2C1 (centres undefined)	–	inconclusive [inhibitor, single point]

Compound	activity change, negative = growth inhibition	Potency
NC(=O)OCC(COC(N)=O)c1ccccc1	–	inconclusive [inhibitor, partial curve, poor fit]
Cc1cc2nc(CCN(Cc3cccnc3)C(=S)Nc3ccc(F)cc3)[nH]c2cc1C	–	inconclusive [inhibitor, single point]
COc1cc2ccc(C(=O)O)cc2cc1OC	inactive: 15.9%	–
COc1ccc(S(=O)(=O)N2CCN(C(=O)CCSc3ccccc3)CC2)cc1	–	active: 11.6 µM
CC1C=CCC2C(=O)N(c3cccc(C(=O)N4CCN(c5ccc(F)cc5)CC4)c3)C(=O)C12 (centres undefined)	inconclusive: -30.4% [inhibitor]	–
CN(CC(=O)Nc1ccc(F)cc1F)S(=O)(=O)c1ccc(C(=O)N2CCOCC2)s1	–	inconclusive [inhibitor, partial curve]
Cn1c(N/N=C/c2c[nH]c3ccccc23)nc2ccccc21	–	inconclusive [inhibitor, single point]
CC1CN(C(=O)N2c3ccccc3Sc3ccccc32)C(C)CC1=O (centres undefined)	–	inconclusive [inhibitor, single point]
CC12CCC(O)CC1=CCC1C2CCC2(C)C(c3ccn[nH]3)CCC12 (centres undefined)	–	inconclusive [inhibitor, single point]
CCOC(=O)C1(Cc2ccccc2)CCN(Cc2cccn2-c2nccs2)CC1	–	inconclusive [inhibitor, partial curve, poor fit]
CC(=O)O[C@]1(C(C)=O)CCC2C3C=C(C)C4=CC(=O)CC[C@]4(C)C3CC[C@@]21C (some centres undefined)	–	active: 23.1 µM
CCN(CC)S(=O)(=O)N1CCC(C(=O)NCc2ccc(C)cc2)CC1	inactive: -7.85%	–
CC(C)Cn1c(N)c(C(=O)COC(=O)C2CCCCC2)c(=O)n(C)c1=O	–	active: 16.4 µM
COc1ccccc1C(=O)NC(=O)Nc1c(C)cc(C)cc1C	–	inconclusive [inhibitor, partial curve]
CC(C)N(Cc1nc(-c2ccc(Cl)cc2)no1)C(=O)C12CC3CC(CC(C3)C1)C2	–	inconclusive [inhibitor, single point]
Cc1ccnc(NS(=O)(=O)c2ccc(N)cc2)n1	–	inactive
COC(=O)c1ccc(OCCOc2ccccc2)cc1	inactive: -1.21%	–
COc1ccc(CNC(=O)c2sc(=O)n(Cc3cc(Cl)ccc3OC)c2C)cc1	–	inconclusive [inhibitor, single point]
CCc1nc2ccc(C(=O)NCc3ccccc3)cc2nc1CC	–	inconclusive [inhibitor, single point]
CN1CCN(C(c2cccc(Br)c2)c2sc3nc(-c4ccco4)nn3c2O)CC1 (centres undefined)	inactive: 3.73%	–
CCC(=O)N1CCc2cc(Br)cc(S(=O)(=O)CCC(=O)NCCc3ccccc3Cl)c21	–	inconclusive [inhibitor, single point]
O=C(C(=Cc1ccccc1)CN1CCCCC1)c1ccccc1	–	active: 0.731 µM
Cc1nc2ccc(C(=O)N3c4ccccc4N=C(c4ccc(C(F)(F)F)cc4)C3C(=O)NC(C)(C)C)cc2[nH]1 (centres undefined)	–	inconclusive [inhibitor, single point]
